According to the supplement of paper PMC4967469:
Lines with a small IC50 respond at low doses; a fit beyond the top or the lowest dose is shown as a bound at that dose. AUC is the area under the same curve over the 256-fold range up to the top dose, as a fraction; it is 1 without any effect and falls as sensitivity rises. For some assays here: The top dose, if marked as inferred, was calculated from the reported fits. For some assays here: Where an entry number is given, a second screen of the drug exists; the two often differ.

Experiments:
Assay in all cases: Viability of human cancer cell lines after 72 h of drug (GDSC screen)
[1] = compound: CCc1nc(N)nc(N)c1-c1ccc(Cl)cc1 [Pyrimethamine]; conditions: top dose 20 µM; top dose inferred
Experimental: (§1)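 Human cancer cell lines in 384-well plates, medium with 10% serum, drug for 72 h over a 256-fold dose range (nine 2-fold or five 4-fold steps up to the top dose). Adherent lines were fixed and stained with the nucleic acid dye Syto60, suspension lines read with resazurin; signal relative to control wells, capped at 0 and 100%. One two-parameter sigmoid per drug and line, fitted in a mixed model over all curves with the slope shared within a line.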

[2] = compound: CCCS(=O)(=O)Nc1ccc(F)c(C(=O)c2c[nH]c3ncc(Cl)cc23)c1F [PLX4720]; conditions: top dose 10 µM
Experimental: as §1

[3] = compound: CC(C)CC(=O)Nc1n[nH]c2c1CN(C(=O)C1CCN(C)CC1)C2(C)C [PHA-793887]; conditions: top dose 10.24 µM
Experimental: as §1

[4] = compound: C/C(=C\c1csc(C)n1)[C@@H]1C[C@@H]2O[C@]2(C)CCC[C@H](C)[C@H](O)[C@@H](C)C(=O)C(C)(C)[C@@H](O)CC(=O)O1 [Epothilone B]; conditions: top dose 0.032 µM; top dose inferred
Experimental: as §1

[5] = compound: NC(=O)Nc1sc(-c2ccc(F)cc2)cc1C(N)=O [TPCA-1]; conditions: top dose 20 µM
Experimental: as §1

[6] = compound: C[C@@H](N)c1ccc(C(=O)Nc2ccnc3[nH]ccc23)cc1 [Y-39983]; conditions: top dose 20 µM; top dose inferred
Experimental: as §1

[7] = compound: CN1CCN(CCOc2cc(OC3CCOCC3)c3c(Nc4c(Cl)ccc5c4OCO5)ncnc3c2)CC1 [AZD-0530]; conditions: top dose 2 µM
Experimental: as §1

[8] = screen: GDSC drug entry 1371, top dose inferred

Cell Line | AUC [1] | IC50 [1] [µM] | AUC ([2]; screen: GDSC drug entry 1036) | IC50 ([2]; screen: GDSC drug entry 1036) [µM] | AUC [2, 8] | IC50 [2, 8] [µM] | AUC [3] | IC50 [3] [µM] | AUC [4] | IC50 [4] [µM] | AUC [5] | IC50 [5] [µM] | AUC [6] | IC50 [6] [µM] | AUC [7] | IC50 [7] [µM]
L-1236 (Hodgkin lymphoma, suspension) | 0.951 | > 20 | 0.938 | > 10 | 0.984 | > 10 | 0.766 | 3.21 | 0.979 | > 0.032 | 0.373 | 0.593 | 0.941 | > 20 | 0.99 | > 2
LAMA-84 (chronic myeloid leukaemia, suspension) | 0.577 | 2.04 | 0.84 | 7.07 | 0.958 | > 10 | 0.795 | 4.83 | 0.807 | 0.0168 | 0.634 | 2.94 | 0.987 | > 20 | 0.534 | 0.155
LAN-6 (neuroblastoma, adherent) | 0.95 | > 20 | 0.985 | > 10 | 0.983 | > 10 | 0.961 | > 10.2 | 0.949 | > 0.032 | 0.93 | > 20 | 0.957 | > 20 | 0.971 | > 2
LB373-MEL-D (melanoma, adherent) | 0.989 | > 20 | 0.99 | > 10 | 0.989 | > 10 | 0.988 | > 10.2 | 0.819 | 0.0177 | 0.962 | > 20 | 0.988 | > 20 | 0.982 | > 2
LB771-HNC (head and neck, adherent) | 0.969 | > 20 | 0.916 | > 10 | 0.918 | > 10 | 0.932 | > 10.2 | 0.697 | 0.00834 | 0.82 | 15.4 | 0.966 | > 20 | 0.936 | > 2
LB831-BLC (bladder, adherent) | 0.974 | > 20 | 0.955 | > 10 | 0.986 | > 10 | 0.903 | > 10.2 | 0.643 | 0.00501 | 0.829 | 12.8 | 0.832 | 13.1 | 0.974 | > 2
LB996-RCC (kidney, adherent) | 0.973 | > 20 | 0.923 | > 10 | 0.891 | > 10 | 0.983 | > 10.2 | 0.607 | 0.00415 | 0.846 | 18.3 | 0.974 | > 20 | 0.695 | 0.484
LB1047-RCC (kidney, adherent) | 0.971 | > 20 | 0.893 | > 10 | 0.898 | > 10 | 0.941 | > 10.2 | 0.494 | 0.00192 | 0.742 | 6.8 | 0.967 | > 20 | 0.753 | 0.742
LC-2-ad (lung adenocarcinoma, adherent) | 0.926 | > 20 | 0.944 | > 10 | 0.967 | > 10 | 0.602 | 1.23 | 0.133 | 0.000133 | 0.541 | 1.62 | 0.863 | 18 | 0.903 | > 2
LNCaP-Clone-FGC (prostate, adherent) | 0.859 | > 20 | 0.984 | > 10 | 0.945 | > 10 | 0.64 | 1.65 | 0.658 | 0.00586 | 0.848 | 18.2 | 0.798 | 11.1 | 0.984 | > 2
LOUCY (T-cell lymphoblastic leukaemia, suspension) | 0.835 | 9.88 | – | – | 0.972 | > 10 | 0.493 | 0.614 | 0.593 | 0.00343 | 0.513 | 1.35 | 0.857 | 11.7 | 0.992 | > 2
LP-1 (myeloma, suspension) | 0.98 | > 20 | 0.973 | > 10 | 0.97 | > 10 | 0.636 | 1.42 | 0.972 | > 0.032 | 0.926 | > 20 | 0.977 | > 20 | 0.993 | > 2
LS-123 (large intestine, adherent) | 0.977 | > 20 | – | – | 0.98 | > 10 | 0.806 | 7.41 | 0.429 | 0.0012 | 0.906 | > 20 | 0.978 | > 20 | 0.916 | > 2
LS-411N (large intestine, adherent) | 0.42 | 0.717 | 0.823 | 7.64 | 0.871 | > 10 | 0.807 | 6.65 | 0.765 | 0.0142 | 0.8 | 12.2 | 0.779 | 10.1 | 0.981 | > 2
LS-513 (large intestine, adherent) | 0.986 | > 20 | 0.987 | > 10 | 0.984 | > 10 | 0.947 | > 10.2 | 0.855 | 0.0273 | 0.694 | 4.48 | 0.93 | > 20 | 0.986 | > 2
LS-1034 (large intestine, adherent) | 0.844 | 16.6 | 0.986 | > 10 | 0.985 | > 10 | 0.935 | > 10.2 | 0.401 | 0.00104 | 0.838 | 15.6 | 0.905 | > 20 | 0.986 | > 2
LU-134-A (small cell lung carcinoma, suspension) | 0.928 | > 20 | 0.974 | > 10 | 0.971 | > 10 | 0.887 | > 10.2 | 0.766 | 0.0126 | 0.825 | 13.1 | 0.87 | > 20 | 0.985 | > 2

Cell Line | AUC [1] | IC50 [1] [µM] | AUC ([2]; screen: GDSC drug entry 1036) | IC50 ([2]; screen: GDSC drug entry 1036) [µM] | AUC [2, 8] | IC50 [2, 8] [µM] | AUC [3] | IC50 [3] [µM] | AUC [4] | IC50 [4] [µM] | AUC [5] | IC50 [5] [µM] | AUC [6] | IC50 [6] [µM] | AUC [7] | IC50 [7] [µM]
LU-165 (small cell lung carcinoma, suspension) | 0.965 | > 20 | 0.943 | > 10 | 0.843 | 8.4 | 0.945 | > 10.2 | 0.931 | > 0.032 | 0.893 | > 20 | 0.968 | > 20 | 0.984 | > 2
LXF-289 (lung adenocarcinoma, adherent) | 0.985 | > 20 | 0.948 | > 10 | 0.96 | > 10 | 0.881 | > 10.2 | 0.311 | 0.000599 | 0.89 | > 20 | 0.961 | > 20 | 0.884 | > 2
MC116 (B-cell lymphoma, suspension) | 0.953 | 17.3 | 0.999 | > 10 | 0.999 | > 10 | 0.738 | 2.4 | 0.624 | 0.00397 | 0.767 | 5.51 | 0.975 | > 20 | 0.997 | > 2
MC-CAR (haematopoietic neoplasm, suspension) | 0.989 | > 20 | 0.959 | > 10 | 0.979 | > 10 | 0.714 | 2.39 | 0.71 | 0.00727 | 0.551 | 1.7 | 0.849 | 12.6 | 0.989 | > 2
MDST8 (large intestine, adherent) | 0.895 | > 20 | 0.887 | > 10 | 0.837 | 6.64 | 0.894 | > 10.2 | 0.859 | 0.0261 | 0.811 | 10.5 | 0.984 | > 20 | 0.986 | > 2
ME-1 (acute myeloid leukaemia, suspension) | 0.987 | > 20 | 0.984 | > 10 | 0.988 | > 10 | 0.986 | > 10.2 | 0.89 | > 0.032 | 0.803 | 10.8 | 0.988 | > 20 | 0.987 | > 2
MEG-01 (chronic myeloid leukaemia, suspension) | 0.763 | 6.8 | 0.936 | > 10 | 0.932 | > 10 | 0.819 | 5.37 | 0.477 | 0.00174 | 0.497 | 1.23 | 0.973 | > 20 | 0.582 | 0.206
MFM-223 (breast, adherent) | 0.985 | > 20 | 0.978 | > 10 | 0.988 | > 10 | 0.963 | > 10.2 | 0.984 | > 0.032 | 0.746 | 6.29 | 0.983 | > 20 | 0.988 | > 2
MHH-PREB-1 (B-cell leukaemia, suspension) | 0.862 | 14.3 | 0.976 | > 10 | 0.947 | > 10 | 0.653 | 1.61 | 0.622 | 0.00416 | 0.466 | 1.02 | 0.867 | 14.9 | 0.976 | > 2
ML-2 (acute myeloid leukaemia, suspension) | 0.817 | 9.66 | 0.942 | > 10 | 0.988 | > 10 | 0.42 | 0.397 | 0.542 | 0.00257 | 0.692 | 4.01 | 0.598 | 2.25 | 0.989 | > 2
MLMA (hairy cell leukaemia, semi-adherent) | 0.985 | > 20 | 0.944 | > 10 | 0.971 | > 10 | 0.357 | 0.257 | 0.796 | 0.0152 | 0.419 | 0.748 | 0.868 | 18.6 | 0.953 | > 2
MMAC-SF (melanoma, adherent) | 0.987 | > 20 | 0.518 | 0.702 | 0.444 | 0.437 | 0.985 | > 10.2 | 0.812 | 0.018 | 0.986 | > 20 | 0.987 | > 20 | 0.985 | > 2
MN-60 (B-cell leukaemia, suspension) | 0.982 | > 20 | 0.988 | > 10 | 0.987 | > 10 | 0.489 | 0.598 | 0.972 | > 0.032 | 0.834 | 13.7 | 0.964 | > 20 | 0.982 | > 2
MOLM-13 (acute myeloid leukaemia, suspension) | 0.738 | 5.67 | 0.966 | > 10 | 0.929 | > 10 | 0.177 | 0.074 | 0.636 | 0.00462 | 0.368 | 0.553 | 0.54 | 1.6 | 0.9 | > 2
MOLP-8 (myeloma, suspension) | 0.987 | > 20 | 0.987 | > 10 | 0.985 | > 10 | 0.239 | 0.117 | 0.537 | 0.00251 | 0.54 | 1.6 | 0.866 | 16.7 | 0.986 | > 2
MOLT-4 (lymphoblastic leukaemia, suspension) | 0.766 | 6.09 | 0.942 | > 10 | 0.966 | > 10 | 0.695 | 1.99 | 0.555 | 0.00275 | 0.757 | 5.73 | 0.893 | 15.9 | 0.956 | > 2
